Measured values as given in publication PMC7480101.
Results are given in words; binding and its absence hold for the method and conditions named. Some entries that bind do so weakly or less than the wild type.

Protein sequences, listed by entry. Tags and fused reporters are not part of them. Lines headed by an entry give the natural chain unless they say otherwise; changes in a name come on top. Chains listed by the source or under a name are the forms on record and can include a tag or linker.
UniProt Q96CV9: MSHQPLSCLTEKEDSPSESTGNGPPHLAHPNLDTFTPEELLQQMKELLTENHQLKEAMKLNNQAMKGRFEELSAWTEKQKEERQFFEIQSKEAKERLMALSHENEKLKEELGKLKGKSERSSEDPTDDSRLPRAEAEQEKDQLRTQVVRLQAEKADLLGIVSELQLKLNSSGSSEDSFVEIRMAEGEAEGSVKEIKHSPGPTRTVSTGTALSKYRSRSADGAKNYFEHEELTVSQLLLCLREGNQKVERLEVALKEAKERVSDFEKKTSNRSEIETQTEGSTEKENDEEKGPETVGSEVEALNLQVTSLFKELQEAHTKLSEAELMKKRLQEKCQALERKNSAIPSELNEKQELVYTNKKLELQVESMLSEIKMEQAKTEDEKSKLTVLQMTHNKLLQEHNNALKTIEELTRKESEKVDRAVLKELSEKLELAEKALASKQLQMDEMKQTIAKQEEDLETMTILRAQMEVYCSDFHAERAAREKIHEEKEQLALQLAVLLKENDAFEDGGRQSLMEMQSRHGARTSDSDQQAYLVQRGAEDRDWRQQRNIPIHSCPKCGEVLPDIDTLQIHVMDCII
hAG-OPTN(148-5A-152, S473E) (Q96CV9, form named): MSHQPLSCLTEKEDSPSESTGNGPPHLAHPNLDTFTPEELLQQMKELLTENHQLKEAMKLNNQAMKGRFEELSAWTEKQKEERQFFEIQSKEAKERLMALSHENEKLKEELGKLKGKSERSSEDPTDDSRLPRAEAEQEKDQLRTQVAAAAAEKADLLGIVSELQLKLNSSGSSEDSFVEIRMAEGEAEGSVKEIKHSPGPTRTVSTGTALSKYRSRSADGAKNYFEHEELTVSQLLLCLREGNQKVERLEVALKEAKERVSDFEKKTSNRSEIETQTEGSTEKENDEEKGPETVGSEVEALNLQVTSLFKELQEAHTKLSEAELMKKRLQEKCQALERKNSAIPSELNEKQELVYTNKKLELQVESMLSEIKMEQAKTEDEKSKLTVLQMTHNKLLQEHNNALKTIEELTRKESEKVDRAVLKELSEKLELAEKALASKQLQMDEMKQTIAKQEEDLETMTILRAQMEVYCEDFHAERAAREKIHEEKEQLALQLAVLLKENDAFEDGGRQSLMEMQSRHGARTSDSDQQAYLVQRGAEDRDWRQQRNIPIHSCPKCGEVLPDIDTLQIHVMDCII
hAG-OPTN(190-577, S473E) (Q96CV9, form named): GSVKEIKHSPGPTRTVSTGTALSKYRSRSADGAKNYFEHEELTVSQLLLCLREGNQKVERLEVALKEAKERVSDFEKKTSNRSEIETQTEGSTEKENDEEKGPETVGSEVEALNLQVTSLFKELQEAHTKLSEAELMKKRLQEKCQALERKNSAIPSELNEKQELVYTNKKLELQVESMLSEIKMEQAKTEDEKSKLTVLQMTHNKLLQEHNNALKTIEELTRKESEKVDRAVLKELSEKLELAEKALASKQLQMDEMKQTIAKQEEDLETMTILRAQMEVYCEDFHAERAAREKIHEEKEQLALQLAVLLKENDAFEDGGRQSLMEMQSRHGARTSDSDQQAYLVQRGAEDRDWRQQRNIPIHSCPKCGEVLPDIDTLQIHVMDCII
hAG-OPTN(133-5A-137, S473E) (Q96CV9, form named): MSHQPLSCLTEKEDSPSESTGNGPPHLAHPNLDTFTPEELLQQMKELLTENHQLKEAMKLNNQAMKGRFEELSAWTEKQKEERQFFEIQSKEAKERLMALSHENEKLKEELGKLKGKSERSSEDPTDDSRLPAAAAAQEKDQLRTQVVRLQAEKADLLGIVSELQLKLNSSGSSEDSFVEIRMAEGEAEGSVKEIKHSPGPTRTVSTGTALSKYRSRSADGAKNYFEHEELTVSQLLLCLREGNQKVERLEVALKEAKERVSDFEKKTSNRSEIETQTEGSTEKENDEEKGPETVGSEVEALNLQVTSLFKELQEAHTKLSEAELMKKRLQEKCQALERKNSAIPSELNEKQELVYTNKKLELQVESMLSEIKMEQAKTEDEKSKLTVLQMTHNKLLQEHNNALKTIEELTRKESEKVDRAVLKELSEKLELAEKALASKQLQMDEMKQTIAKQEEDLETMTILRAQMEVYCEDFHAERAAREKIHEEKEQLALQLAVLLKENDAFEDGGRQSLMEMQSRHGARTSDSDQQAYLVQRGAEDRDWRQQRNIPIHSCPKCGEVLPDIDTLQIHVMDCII
hAG-OPTN(170-577, S473E) (Q96CV9, form named): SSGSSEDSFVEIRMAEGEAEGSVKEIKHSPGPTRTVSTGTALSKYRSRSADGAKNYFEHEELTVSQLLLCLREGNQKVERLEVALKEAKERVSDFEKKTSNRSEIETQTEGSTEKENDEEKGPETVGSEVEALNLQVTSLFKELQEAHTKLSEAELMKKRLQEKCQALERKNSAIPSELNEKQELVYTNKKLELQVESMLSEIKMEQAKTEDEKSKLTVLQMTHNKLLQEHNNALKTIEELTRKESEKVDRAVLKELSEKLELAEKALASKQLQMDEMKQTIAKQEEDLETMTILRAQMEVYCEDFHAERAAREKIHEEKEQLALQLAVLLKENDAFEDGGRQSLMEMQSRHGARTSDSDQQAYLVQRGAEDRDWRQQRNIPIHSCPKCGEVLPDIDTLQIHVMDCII
hAG-OPTN(138-5A-142, S473E) (Q96CV9, form named): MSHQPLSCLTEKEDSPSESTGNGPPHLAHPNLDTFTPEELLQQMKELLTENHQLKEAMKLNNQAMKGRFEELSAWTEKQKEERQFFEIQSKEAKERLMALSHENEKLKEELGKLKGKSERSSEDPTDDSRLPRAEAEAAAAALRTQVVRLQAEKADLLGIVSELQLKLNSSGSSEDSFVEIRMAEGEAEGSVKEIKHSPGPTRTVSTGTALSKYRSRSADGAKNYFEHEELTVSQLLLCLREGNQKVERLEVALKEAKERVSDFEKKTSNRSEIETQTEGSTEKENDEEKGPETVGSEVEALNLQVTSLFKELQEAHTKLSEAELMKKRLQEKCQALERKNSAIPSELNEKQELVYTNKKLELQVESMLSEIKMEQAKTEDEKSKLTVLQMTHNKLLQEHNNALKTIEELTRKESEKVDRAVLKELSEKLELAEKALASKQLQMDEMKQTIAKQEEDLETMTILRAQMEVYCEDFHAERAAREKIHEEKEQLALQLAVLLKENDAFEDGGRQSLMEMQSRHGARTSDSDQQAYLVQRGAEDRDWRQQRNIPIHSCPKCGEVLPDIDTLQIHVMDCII
hAG-OPTN(401-577, S473E) (Q96CV9, form named): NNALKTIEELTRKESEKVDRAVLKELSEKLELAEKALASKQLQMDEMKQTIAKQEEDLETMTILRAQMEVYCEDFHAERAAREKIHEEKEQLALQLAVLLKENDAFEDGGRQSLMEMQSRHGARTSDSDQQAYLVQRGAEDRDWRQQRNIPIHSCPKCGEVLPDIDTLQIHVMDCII
hAG-OPTN(128-5A-132, S473E) (Q96CV9, form named): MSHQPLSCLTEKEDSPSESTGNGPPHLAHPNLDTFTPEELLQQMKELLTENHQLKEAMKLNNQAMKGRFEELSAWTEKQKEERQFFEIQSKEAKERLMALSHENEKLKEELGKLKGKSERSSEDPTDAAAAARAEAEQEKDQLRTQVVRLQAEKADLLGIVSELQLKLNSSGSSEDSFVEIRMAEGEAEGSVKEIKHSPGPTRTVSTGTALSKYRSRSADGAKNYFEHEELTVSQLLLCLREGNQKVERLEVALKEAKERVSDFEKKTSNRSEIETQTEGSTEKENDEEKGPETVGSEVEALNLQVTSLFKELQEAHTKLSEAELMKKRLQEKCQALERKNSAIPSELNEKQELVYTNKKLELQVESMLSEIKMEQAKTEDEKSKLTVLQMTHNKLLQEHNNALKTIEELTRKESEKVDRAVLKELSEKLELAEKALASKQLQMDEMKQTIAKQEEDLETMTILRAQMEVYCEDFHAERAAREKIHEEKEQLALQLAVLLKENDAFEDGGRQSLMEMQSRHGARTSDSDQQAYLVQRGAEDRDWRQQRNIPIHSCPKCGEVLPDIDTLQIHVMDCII
UniProt Q14596: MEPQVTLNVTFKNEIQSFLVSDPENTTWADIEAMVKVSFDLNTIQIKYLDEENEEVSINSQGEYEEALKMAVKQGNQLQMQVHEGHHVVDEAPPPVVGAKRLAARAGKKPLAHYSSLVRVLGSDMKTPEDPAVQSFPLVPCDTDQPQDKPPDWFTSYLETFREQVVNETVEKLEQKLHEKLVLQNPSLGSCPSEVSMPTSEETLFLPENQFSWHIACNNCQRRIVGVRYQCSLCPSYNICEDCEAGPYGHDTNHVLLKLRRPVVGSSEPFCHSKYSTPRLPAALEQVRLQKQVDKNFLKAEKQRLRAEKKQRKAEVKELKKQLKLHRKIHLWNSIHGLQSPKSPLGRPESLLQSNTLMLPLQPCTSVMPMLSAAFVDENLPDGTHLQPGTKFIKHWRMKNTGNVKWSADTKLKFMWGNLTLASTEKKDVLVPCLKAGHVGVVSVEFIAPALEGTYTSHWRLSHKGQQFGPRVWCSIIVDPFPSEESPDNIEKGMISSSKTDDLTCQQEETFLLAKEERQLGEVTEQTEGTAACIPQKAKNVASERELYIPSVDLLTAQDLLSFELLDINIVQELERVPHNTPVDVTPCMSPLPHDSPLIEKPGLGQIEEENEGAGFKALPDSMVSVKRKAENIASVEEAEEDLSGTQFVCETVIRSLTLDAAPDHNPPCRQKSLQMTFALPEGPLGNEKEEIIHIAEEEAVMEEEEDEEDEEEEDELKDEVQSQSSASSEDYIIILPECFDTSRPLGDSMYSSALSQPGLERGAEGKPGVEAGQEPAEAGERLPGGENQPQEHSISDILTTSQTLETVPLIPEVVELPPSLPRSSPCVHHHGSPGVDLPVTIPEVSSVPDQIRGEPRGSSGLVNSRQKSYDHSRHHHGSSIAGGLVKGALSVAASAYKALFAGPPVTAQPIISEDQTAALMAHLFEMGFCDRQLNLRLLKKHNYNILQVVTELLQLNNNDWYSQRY

Legend:
Assay in all cases: Fluoppi (phase-separated fluorescent foci in cells); hAG-tagged autophagy adaptor and HA-Ash-6Ub transiently co-expressed in HeLa (WT, Penta KO, FIP200 KO, ATG5 KO, ATG9A KO) or HCT116 (WT, TBK1-/-) cells; foci formation and incorporation of a third protein into the foci read by immunostaining and confocal microscopy; some samples with 2 µM BX-795 for 15 h
[1] = biological target: hAG-OPTN(148-5A-152, S473E) (human) (UniProt Q96CV9)
[2] = biological target: hAG-OPTN(190-577, S473E) (human) (UniProt Q96CV9)
[3] = biological target: hAG-OPTN(133-5A-137, S473E) (human) (UniProt Q96CV9)
[4] = biological target: hAG-OPTN(170-577, S473E) (human) (UniProt Q96CV9)
[5] = biological target: hAG-OPTN(M44Q/L54Q, S473E) (human) (UniProt Q96CV9)
hAG-NDP52 (human) = hAG-NDP52 (human) (UniProt Q13137)
hAG-OPTN(S473E) (human) = hAG-OPTN(S473E) (human) (UniProt Q96CV9)
hAG-NBR1 (human) = hAG-NBR1 (human) (UniProt Q14596)
[6] = biological target: hAG-OPTN(138-5A-142, S473E) (human) (UniProt Q96CV9)
[7] = biological target: hAG-OPTN(401-577, S473E) (human) (UniProt Q96CV9)
hAG-OPTN (human) = hAG-OPTN (human) (UniProt Q96CV9)
[8] = biological target: hAG-OPTN(128-5A-132, S473E) (human) (UniProt Q96CV9)
hAG-p62 (human) = hAG-p62 (human) (UniProt Q13501)

binding [1]: no binding
binding [2]: no binding
binding [3]: binds
binding [4]: no binding
binding [5]: binds
binding (hAG-NDP52 (human)): no binding
binding (hAG-OPTN(S473E) (human)): binds
binding (hAG-NBR1 (human)): no binding
binding [6]: binds
binding [7]: no binding
binding (hAG-OPTN (human)): binds
binding [8]: binds
binding (hAG-p62 (human)): no binding
B1: ATG9A (protein, UniProt Q7Z3C6 1-839)
chain: MAQFDTEYQRLEASYSDSPPGEEDLLVHVAEGSKSPWHHIENLDLFFSRVYNLHQKNGFTCMLIGEIFELMQFLFVVAFTTFLVSCVDYDILFANKMVNHSLHPTEPVKVTLPDAFLPAQVCSARIQENGSLITILVIAGVFWIHRLIKFIYNICCYWEIHSFYLHALRIPMSALPYCTWQEVQARIVQTQKEHQICIHKRELTELDIYHRILRFQNYMVALVNKSLLPLRFRLPGLGEAVFFTRGLKYNFELILFWGPGSLFLNEWSLKAEYKRGGQRLELAQRLSNRILWIGIANFLLCPLILIWQILYAFFSYAEVLKREPGALGARCWSLYGRCYLRHFNELEHELQSRLNRGYKPASKYMNCFLSPLLTLLAKNGAFFAGSILAVLIALTIYDEDVLAVEHVLTTVTLLGVTVTVCRSFIPDQHMVFCPEQLLRVILAHIHYMPDHWQGNAHRSQTRDEFAQLFQYKAVFILEELLSPIVTPLILIFCLRPRALEIIDFFRNFTVEVVGVGDTCSFAQMDVRQHGHPQWLSAGQTEASVYQQAEDGKTELSLMHFAITNPGWQPPRESTAFLGFLKEQVQRDGAAASLAQGGLLPENALFTSIQSLQSESEPLSLIANVVAGSSCRGPPLPRDLQGSRHRAEVASALRSFSPLQPGQAPTGRAHSTMTGSGVDARTASSGSSVWEGQLQSLVLSEYASTEMSLHALYMHQLHKQQAQAEPERHVWHRRESDESGESAPDEGGEGARAPQSIPRSASYPCAAPRPGAPETTALHGGFQRRYGGITDPGTVPRVPSHFSRLPLGGWAEDGQSASRHPEPVPEEGSEDELPPQVHKV
